Some of the results follow.
Legend:
[1] = system: HSkMC (human skeletal muscle cells); assay: cytotoxicity call (relative viability < 0.9); conditions: 10 µM
[2] = system: HepG2; assay: cytotoxicity call (relative viability < 0.9); conditions: 10 µM
[3] = system: S. aureus RN4220; assay: growth inhibition call (relative growth <= 0.2); conditions: 50 µM

Structure (SMILES)	cytotoxicity call [1]	cytotoxicity call [2]	growth inhibition call [3]
Cc1cc2cccc(C(=O)N[C@H]3CC[C@@H](N)CC3)c2o1	inactive	inactive	inactive
COCC#Cc1ccc([C@@H]2[C@H]3CN(C(=O)C4CCOCC4)CC(=O)N3[C@H]2CO)cc1	inactive	inactive	inactive
C=CC[N+]1(C2CC3C4CCC5CC(O)C(N6CCOCC6)CC5(C)C4CCC3(C)C2OC(C)=O)CCCC1.[Br-] (stereo not given)	inactive	inactive	inactive
Cc1ccc(S(=O)(=O)N(C)C[C@H]2Oc3ccc(NC(=O)Nc4ccc(C(F)(F)F)cc4)cc3C(=O)N([C@@H](C)CO)C[C@@H]2C)cc1	inactive	inactive	inactive
Cc1noc(C)c1NC(=O)N(C)C[C@@H]1OCCCC[C@H](C)Oc2ccc(NC(=O)Nc3ccc(F)cc3)cc2C(=O)N([C@@H](C)CO)C[C@H]1C	inactive	inactive	inactive
C[C@@H]1CN([C@@H](C)CO)C(=O)c2cc(NC(=O)CCN3CCOCC3)ccc2O[C@@H]1CN(C)C(=O)Nc1ccc(F)cc1	inactive	inactive	inactive
C=C(C)CNc1nc(-c2ccccc2)c(-c2ccccc2)s1	inactive	inactive	inactive
CCN1CCN(C2CCN(Cc3cc(=O)n(C)c(=O)n3C)CC2)C1=O	inactive	inactive	inactive
CNC1C(OC2OC(CO)C(N)C(O)C2O)OC2CC(N)C(OC3C(N)CC(N)C(O)C3O)OC2C1O.O=S(=O)(O)O (stereo not given)	inactive	inactive	active
Cc1ccc(S(=O)(=O)N(C)C[C@@H]2Oc3c(NC(=O)c4ccncc4)cccc3C(=O)N([C@@H](C)CO)C[C@H]2C)cc1	inactive	inactive	inactive
CN1CCN(CC#N)C(=O)C12CCN(C(=O)c1cnccn1)CC2	inactive	inactive	inactive
COc1cc2c(=O)c(-c3ccc4c(c3)OCO4)coc2c2c1OC(C)(C)C=C2	inactive	active	inactive
Cc1ccc(S(=O)(=O)N(C)C[C@H]2OCCCC[C@@H](C)Oc3ccc(NC(=O)Nc4ccc(C(F)(F)F)cc4)cc3C(=O)N([C@@H](C)CO)C[C@@H]2C)cc1	inactive	active	inactive
C[C@@H]1CN([C@H](C)CO)C(=O)c2cc(NC(=O)Cc3ccccc3)ccc2O[C@@H](C)CCCCO[C@H]1CN(C)Cc1ccc(Cl)c(Cl)c1	active	active	inactive
C[C@@H]1CCCCO[C@H](CN(C)C(=O)Nc2ccc(F)cc2)[C@H](C)CN([C@@H](C)CO)C(=O)c2cc(NC(=O)CCC(F)(F)F)ccc2O1	inactive	inactive	inactive
Cc1noc(C)c1NC(=O)Nc1ccc2c(c1)C(=O)N([C@H](C)CO)C[C@H](C)[C@@H](CN(C)C(=O)c1ccccc1)OCCCC[C@@H](C)O2	inactive	inactive	inactive
COc1ccc(S(=O)(=O)N(C)C[C@@H]2Oc3ncc(-c4ccc(F)cc4)cc3C(=O)N([C@H](C)CO)C[C@@H]2C)cc1	inactive	inactive	inactive
C[C@H]1CN([C@@H](C)CO)C(=O)Cc2cc(NC(=O)Cn3cnnn3)ccc2O[C@H]1CN(C)C(=O)Nc1ccc(F)cc1	inactive	inactive	inactive
C[C@@H]1CN([C@H](C)CO)C(=O)c2cc(NS(=O)(=O)c3cn(C)cn3)ccc2O[C@@H](C)CCCCO[C@H]1CN(C)C	inactive	inactive	inactive
Nc1cc(N2CCCCC2)nc(N)[n+]1[O-]	inactive	inactive	inactive
C[C@H]1CN([C@@H](C)CO)C(=O)c2c(c3ccccc3n2C)-c2ccccc2CO[C@@H]1CN(C)Cc1ccc(C(F)(F)F)cc1	inactive	inactive	inactive
O=C1N[C@@H](c2ccccc2)COCc2cn(nn2)CC[C@H](Cc2ccc(C(F)(F)F)cc2)C(=O)N[C@@H](c2ccccc2)COCc2cn(nn2)CC[C@@H]1Cc1ccc(C(F)(F)F)cc1	inactive	inactive	inactive
COc1ccc(NC(=O)Nc2ccc3c(c2)CC(=O)N([C@@H](C)CO)C[C@@H](C)[C@H](CN(C)Cc2ccc(C(F)(F)F)cc2)O3)cc1	inactive	active	inactive
C[C@@H]1CN([C@@H](C)CO)C(=O)Cc2cc(NC(=O)CCCCCC(=O)Nc3ccccc3N)ccc2O[C@H]1CN(C)C(=O)Nc1ccc(F)cc1	inactive	inactive	inactive
CO[C@H]1CN(C)C(=O)c2ccc(NS(C)(=O)=O)cc2OC[C@@H](C)N(S(C)(=O)=O)C[C@@H]1C	inactive	inactive	inactive
